# Data as given in the supplement of paper PMC8728848.
# This is one part of the list.
# B1: PA-IL (Pseudomonas aeruginosa), Q05097 (protein)
# chain: MAWKGEVLANNEAGQVTSIIYNPGDVITIVAAGWASYGPTQKWGPQGDREHPDQGLICHDAFCGALVMKIGNSGTIPVNTGLFRWVAPNNVQGAITLIYNDVPGTYGNNSGSFSVNIGKDQS
# What was measured:
# Assay in all cases: glycan array binding signal (z-score within array); higher = stronger binding
# Settings in all cases: glycan notation: IUPAC condensed, linker removed
# GlcNAc(b1-3)Fuc = target: GlcNAc(b1-3)Fuc
# Summary of the method: (§1)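 Glycan array binding is given as a within-array Z-score, which can be read as non-binding when negative. The arrays, 3228 of them, came from the Consortium for Functional Glycomics database and were retained only where the protein sequence was available. Z-scores were averaged across arrays of the same protein sequence at different concentrations or buffers and across linkers.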
# GlcNAc(b1-3)Gal = target: GlcNAc(b1-3)Gal
# Summary of the method: as §1
# [1] = target: GlcNAc(b1-3)Gal(b1-3)GalNAc
# Summary of the method: as §1
# GlcNAc(b1-3)Gal(b1-4)Glc = target: GlcNAc(b1-3)Gal(b1-4)Glc
# Summary of the method: as §1
# [2] = target: GlcNAc(b1-3)Gal(b1-4)GlcNAc
# Summary of the method: as §1
# [3] = target: GlcNAc(b1-3)Gal(b1-4)GlcNAc(b1-2)Man(a1-3)[GlcNAc(b1-3)Gal(b1-4)GlcNAc(b1-2)Man(a1-6)]Man(b1-4)GlcNAc(b1-4)GlcNAc
# Summary of the method: as §1
# [4] = target: GlcNAc(b1-3)Gal(b1-4)GlcNAc(b1-2)Man(a1-3)[GlcNAc(b1-3)Gal(b1-4)GlcNAc(b1-2)Man(a1-6)]Man(b1-4)GlcNAc(b1-4)[Fuc(a1-6)]GlcNAc
# Summary of the method: as §1
# [5] = target: GlcNAc(b1-3)Gal(b1-4)GlcNAc(b1-2)[GlcNAc(b1-3)Gal(b1-4)GlcNAc(b1-6)]Man(a1-6)[GlcNAc(b1-3)Gal(b1-4)GlcNAc(b1-2)Man(a1-3)]Man(b1-4)GlcNAc(b1-4)GlcNAc
# Summary of the method: as §1
# [6] = target: GlcNAc(b1-3)Gal(b1-4)GlcNAc(b1-3)Gal(b1-4)GlcNAc
# Summary of the method: as §1
# [7] = target: GlcNAc(b1-3)Gal(b1-4)GlcNAc(b1-3)Gal(b1-4)GlcNAc(b1-2)Man(a1-3)[GlcNAc(b1-3)Gal(b1-4)GlcNAc(b1-3)Gal(b1-4)GlcNAc(b1-2)Man(a1-6)]Man(b1-4)GlcNAc(b1-4)GlcNAc
# Summary of the method: as §1
# [8] = target: GlcNAc(b1-3)Gal(b1-4)GlcNAc(b1-3)Gal(b1-4)GlcNAc(b1-2)Man(a1-3)[GlcNAc(b1-3)Gal(b1-4)GlcNAc(b1-3)Gal(b1-4)GlcNAc(b1-2)Man(a1-6)]Man(b1-4)GlcNAc(b1-4)[Fuc(a1-6)]GlcNAc
# Summary of the method: as §1
# [9] = target: GlcNAc(b1-3)Gal(b1-4)GlcNAc(b1-3)Gal(b1-4)GlcNAc(b1-2)[GlcNAc(b1-3)Gal(b1-4)GlcNAc(b1-3)Gal(b1-4)GlcNAc(b1-6)]Man(a1-6)[GlcNAc(b1-3)Gal(b1-4)GlcNAc(b1-3)Gal(b1-4)GlcNAc(b1-2)Man(a1-3)]Man(b1-4)GlcNAc(b1-4)[Fuc(a1-6)]GlcNAc
# Summary of the method: as §1
# [10] = target: GlcNAc(b1-3)Gal(b1-4)GlcNAc(b1-3)Gal(b1-4)GlcNAc(b1-3)Gal(b1-4)GlcNAc(b1-2)Man(a1-3)[GlcNAc(b1-3)Gal(b1-4)GlcNAc(b1-3)Gal(b1-4)GlcNAc(b1-3)Gal(b1-4)GlcNAc(b1-2)Man(a1-6)]Man(b1-4)GlcNAc(b1-4)GlcNAc
# Summary of the method: as §1
# [11] = target: GlcNAc(b1-3)Gal(b1-4)GlcNAc(b1-3)Gal(b1-4)GlcNAc(b1-3)Gal(b1-4)GlcNAc(b1-2)Man(a1-3)[GlcNAc(b1-3)Gal(b1-4)GlcNAc(b1-3)Gal(b1-4)GlcNAc(b1-3)Gal(b1-4)GlcNAc(b1-2)Man(a1-6)]Man(b1-4)GlcNAc(b1-4)[Fuc(a1-6)]GlcNAc
# Summary of the method: as §1
# [12] = target: GlcNAc(b1-3)Gal(b1-4)GlcNAc(b1-3)Gal(b1-4)GlcNAc(b1-3)Gal(b1-4)GlcNAc(b1-2)[GlcNAc(b1-3)Gal(b1-4)GlcNAc(b1-3)Gal(b1-4)GlcNAc(b1-3)Gal(b1-4)GlcNAc(b1-6)]Man(a1-6)[GlcNAc(b1-3)Gal(b1-4)GlcNAc(b1-3)Gal(b1-4)GlcNAc(b1-3)Gal(b1-4)GlcNAc(b1-2)Man(a1-3)]Man(b1-4)GlcNAc(b1-4)[Fuc(a1-6)]GlcNAc
# Summary of the method: as §1
# [13] = target: GlcNAc(b1-3)Gal(b1-4)GlcNAc(b1-3)Gal(b1-4)GlcNAc(b1-3)Gal(b1-4)GlcNAc(b1-3)Gal(b1-4)GlcNAc(b1-2)Man(a1-3)[GlcNAc(b1-3)Gal(b1-4)GlcNAc(b1-3)Gal(b1-4)GlcNAc(b1-3)Gal(b1-4)GlcNAc(b1-3)Gal(b1-4)GlcNAc(b1-2)Man(a1-6)]Man(b1-4)GlcNAc(b1-4)GlcNAc
# Summary of the method: as §1
# [14] = target: GlcNAc(b1-3)Gal(b1-4)GlcNAc(b1-3)Gal(b1-4)GlcNAc(b1-3)Gal(b1-4)GlcNAc(b1-3)Gal(b1-4)GlcNAc(b1-2)Man(a1-3)[GlcNAc(b1-3)Gal(b1-4)GlcNAc(b1-3)Gal(b1-4)GlcNAc(b1-3)Gal(b1-4)GlcNAc(b1-3)Gal(b1-4)GlcNAc(b1-2)Man(a1-6)]Man(b1-4)GlcNAc(b1-4)[Fuc(a1-6)]GlcNAc
# Summary of the method: as §1
# [15] = target: GlcNAc(b1-3)Gal(b1-4)GlcNAc(b1-3)Gal(b1-4)GlcNAc(b1-3)Gal(b1-4)GlcNAc(b1-3)Gal(b1-4)GlcNAc(b1-2)[GlcNAc(b1-3)Gal(b1-4)GlcNAc(b1-3)Gal(b1-4)GlcNAc(b1-3)Gal(b1-4)GlcNAc(b1-3)Gal(b1-4)GlcNAc(b1-6)]Man(a1-6)[GlcNAc(b1-3)Gal(b1-4)GlcNAc(b1-3)Gal(b1-4)GlcNAc(b1-3)Gal(b1-4)GlcNAc(b1-3)Gal(b1-4)GlcNAc(b1-2)Man(a1-3)]Man(b1-4)GlcNAc(b1-4)[Fuc(a1-6)]GlcNAc
# Summary of the method: as §1
# [16] = target: GlcNAc(b1-3)Gal(b1-4)GlcNAc(b1-3)Gal(b1-4)GlcNAc(b1-3)GalNAc
# Summary of the method: as §1
# [17] = target: GlcNAc(b1-3)Gal(b1-4)GlcNAc(b1-3)GalNAc
# Summary of the method: as §1
# [18] = target: GlcNAc(b1-3)Gal(b1-4)GlcNAc(b1-3)[GlcNAc(b1-3)Gal(b1-4)GlcNAc(b1-3)]GalNAc
# Summary of the method: as §1
# [19] = target: GlcNAc(b1-3)Gal(b1-4)GlcNAc(b1-6)[Gal(b1-3)]GalNAc
# Summary of the method: as §1
binder,measurement,setting,value
B1,glycan array binding signal (z-score),GlcNAc(b1-3)Fuc,-0.215
same,glycan array binding signal (z-score),GlcNAc(b1-3)Gal,-0.228
same,glycan array binding signal (z-score),[1],-0.231
same,glycan array binding signal (z-score),GlcNAc(b1-3)Gal(b1-4)Glc,-0.213
same,glycan array binding signal (z-score),[2],-0.226
same,glycan array binding signal (z-score),[3],-0.22
same,glycan array binding signal (z-score),[4],-0.226
same,glycan array binding signal (z-score),[5],-0.164
same,glycan array binding signal (z-score),[6],-0.21
same,glycan array binding signal (z-score),[7],-0.082
same,glycan array binding signal (z-score),[8],-0.226
same,glycan array binding signal (z-score),[9],-0.204
same,glycan array binding signal (z-score),[10],-0.216
same,glycan array binding signal (z-score),[11],-0.198
same,glycan array binding signal (z-score),[12],-0.211
same,glycan array binding signal (z-score),[13],-0.188
same,glycan array binding signal (z-score),[14],-0.235
same,glycan array binding signal (z-score),[15],-0.184
same,glycan array binding signal (z-score),[16],-0.22
same,glycan array binding signal (z-score),[17],-0.221
same,glycan array binding signal (z-score),[18],-0.227
same,glycan array binding signal (z-score),[19],-0.246
